# In all, about 190,000 compounds went through this assay and about 270 (0.14%) were called active. Inconclusive results, whose numbers are uncertain, are shown with a selection of clear calls.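 How the source made its calls: active means GTP binding activity at least 20% away from the 100% baseline, either lowered as inhibitor or raised as activator; inconclusive means flagged as likely green fluorescent, judged across all proteins in the well; inactive means the rest.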
# Target: GTPase HRas (Homo sapiens) (UniProt P01112)
# UniProt P01112, sequence (P01112 whole entry, looked up): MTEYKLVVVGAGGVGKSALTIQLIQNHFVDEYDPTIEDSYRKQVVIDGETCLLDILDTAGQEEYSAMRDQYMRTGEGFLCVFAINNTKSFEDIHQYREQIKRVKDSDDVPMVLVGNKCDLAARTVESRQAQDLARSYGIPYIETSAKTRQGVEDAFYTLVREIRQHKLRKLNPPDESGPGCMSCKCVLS
# Assay: HRas wt fluorescent GTP binding changes, either direction – biochemical, wildtype, bead-based flow cytometry, multiplex, primary screen (AID 759);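 further: 0% = unlabeled GTP competition control and 100% = no-compound control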
# Details: GST-Ras wt beads, Bodipy-FL-GTP binding, at 10 µM, actives lie on both sides
row,Structure (SMILES),GTP binding activity
1,Cc1cccc(C)c1NC(=O)C(=O)NCc1ccccn1,inactive: 102%
2,COc1cc(SC)ccc1C(=O)Nc1ccccc1C#N,inconclusive: 104%
3,Oc1ccc(C2N=C(c3ccccc3)NC(c3ccccc3)=N2)cc1,inconclusive: 103%
4,COc1cc(CCC(=O)Nc2ccc(Br)c(C(F)(F)F)c2)cc(OC)c1OC,inactive: 100%
5,O=C(NC(=S)Nc1nc2ccc(F)cc2s1)c1ccco1,inconclusive: 92%
6,COc1cccc(CN2CCCC(CNC(=O)c3ccc(F)cc3)C2)c1OC (configuration not stated),inactive: 97%
7,COc1ccc(-c2cc(=O)oc3c(C)c(OC(=O)c4cccs4)ccc23)cc1,inconclusive: 110%
8,O=S(=O)(Nc1cccc(-c2cn3cccnc3n2)c1)c1ccccc1,active: 75%
9,COc1ccccc1Cn1c(=S)[nH]c2cc(C(=O)NCc3cccnc3)ccc2c1=O,inconclusive: 95%
10,CCN1CCN(C(=O)CSc2nc(N)cc(N)n2)CC1,inconclusive: 82%
11,CCN(c1ccc(N=Cc2c(O)n(Cc3ccc(OC)cc3)c(=O)c3ccccc23)cc1)C(C)C,inconclusive: 311%
12,O=C(COc1cccc(Cl)c1)Nc1ccc2c(c1)CCC2,inactive: 97%
13,Cn1cnnc1SCC(=O)NCCc1ccc(Cl)cc1Cl,inactive: 97%
14,O=C(CN(C(=O)c1csnn1)c1cccc(F)c1)NCc1ccc(F)cc1,inactive: 99%
15,COc1ccc(N)c2c1C(=O)c1ccccc1C2=O,inconclusive: 87%
16,Cc1ccc(Sc2ncccc2C(=O)O)c(C)c1,active: 123% [activator]
17,Cc1ccc(/C=C/C(=O)Nc2cc(S(N)(=O)=O)ccc2O)cc1,inconclusive: 95%
18,Cc1cccc(C)c1NC(=S)N1CCC(c2ccccc2)C1 (configuration not stated),inactive: 97%
19,Brc1ccc(Nc2nc(-c3cccnc3)cs2)cc1,inconclusive: 98%
20,Cn1c(=O)[nH]c(=O)c2c1nc(N1CCCCCC1)n2CCOc1ccccc1,inactive: 97%
21,O/N=C1\CC/C(=N\O)c2nn(-c3ccc(Cl)cc3Cl)nc21,inconclusive: 94%
22,CC(C)Oc1ccc(CCc2n[nH]c(=S)n2-c2ccccc2)cc1,inactive: 97%
23,Cc1ccccc1NC(=O)c1ccc(CN(c2ccccc2)S(=O)(=O)c2ccccc2)cc1,inactive: 97%
24,O=c1oc(-c2cccs2)nc2scc(-c3cccs3)c12,inconclusive: 84%
25,CC(C)C(NC(=S)Nc1ccccc1)C(=O)O (configuration not stated),inactive: 104%
26,O=c1[nH]c2c(c3c1CCCC3)CCCC2,inconclusive: 103%
27,COCCNc1ccc([N+](=O)[O-])cc1C(=O)Nc1cccc(C)n1,inactive: 97%

# — PubChem BioAssay AID759 (NMMLSC, 2007)
